# Results reported in paper PMC4336329 (PLoS ONE, 2015).
# The whole screen tested about 310,000 compounds, of which about 14,000 (4.5%) showed an effect of 50% or more. Effects have a minus sign here. The list shows a part of the results.
# Biological target: human ether-à-go-go-related gene (hERG) potassium channel (human, UniProt Q12809)
# Test: primary screen, population patch clamp on CHO cells stably expressing hERG
# 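Also: peak tail current of the secondary pulse compared with the same well before compound.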
# Chain of human ether-à-go-go-related gene (hERG) potassium channel (Q12809 whole entry, looked up): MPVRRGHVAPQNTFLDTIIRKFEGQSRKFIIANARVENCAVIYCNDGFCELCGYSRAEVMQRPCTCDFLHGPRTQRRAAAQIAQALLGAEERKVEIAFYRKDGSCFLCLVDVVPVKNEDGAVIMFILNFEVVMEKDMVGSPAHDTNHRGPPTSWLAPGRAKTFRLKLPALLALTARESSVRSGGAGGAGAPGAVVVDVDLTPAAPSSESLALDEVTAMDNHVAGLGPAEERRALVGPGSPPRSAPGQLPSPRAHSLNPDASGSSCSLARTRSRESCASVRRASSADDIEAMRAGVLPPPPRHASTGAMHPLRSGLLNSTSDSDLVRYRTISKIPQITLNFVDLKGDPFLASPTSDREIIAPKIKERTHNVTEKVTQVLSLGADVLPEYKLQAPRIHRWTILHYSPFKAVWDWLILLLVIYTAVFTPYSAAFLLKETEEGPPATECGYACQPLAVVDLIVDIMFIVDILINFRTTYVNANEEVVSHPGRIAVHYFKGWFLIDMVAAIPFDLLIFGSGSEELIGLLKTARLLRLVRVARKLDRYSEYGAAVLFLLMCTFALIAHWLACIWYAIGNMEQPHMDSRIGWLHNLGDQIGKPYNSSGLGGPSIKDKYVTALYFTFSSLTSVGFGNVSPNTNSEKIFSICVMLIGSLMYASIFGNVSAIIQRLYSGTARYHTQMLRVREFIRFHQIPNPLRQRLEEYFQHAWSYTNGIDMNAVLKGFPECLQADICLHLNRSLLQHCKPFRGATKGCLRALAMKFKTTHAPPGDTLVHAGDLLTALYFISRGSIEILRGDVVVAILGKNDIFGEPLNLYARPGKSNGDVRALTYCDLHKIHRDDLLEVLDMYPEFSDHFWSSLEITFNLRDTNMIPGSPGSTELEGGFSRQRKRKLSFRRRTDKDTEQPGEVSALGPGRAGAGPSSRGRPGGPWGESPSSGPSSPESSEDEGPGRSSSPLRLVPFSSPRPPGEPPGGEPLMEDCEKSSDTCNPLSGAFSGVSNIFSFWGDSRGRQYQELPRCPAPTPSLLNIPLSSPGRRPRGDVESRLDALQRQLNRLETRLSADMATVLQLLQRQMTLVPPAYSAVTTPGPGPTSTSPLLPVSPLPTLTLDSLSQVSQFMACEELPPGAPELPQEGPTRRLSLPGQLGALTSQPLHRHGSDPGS
row,SMILES,"hERG current change (%, negative = inhibition) at 10uM [%]"
1,Cc1ccc(S(=O)(=O)N(CC(=O)NCc2cccnc2)C2CCCCC2)cc1,-63.3
2,Cc1cc(F)ccc1S(=O)(=O)Nc1ccccc1C(=O)Nc1ccc2[nH]c(=O)[nH]c2c1,10.9
3,C=CCn1c(-c2cccc(OC)c2OC)n[nH]c1=S,-24.3
4,Cc1cccc(C)c1OCc1cc(C(=O)N(Cc2nccn2C)C(C)C)no1,-5.91
5,O=C(CSc1nc2c(sc3ccccc32)c(=O)n1CCCN1CCOCC1)NC1CCCC1,-64.7
6,Cc1nc(C)c(C(=O)OCC(=O)Nc2cccc(C)c2C)s1,-1.38
7,Cc1nc(-c2ccc(Cl)cc2)sc1C1(C)CC(c2ccccc2)=NO1 (stereo not drawn),12.5
8,CN(C)S(=O)(=O)c1ccc(Cl)c(NC(=O)COC(=O)c2ccc(O)cc2)c1,0.26
9,O=C(NCCNC(=O)c1ccccn1)c1cccc(F)c1,23.7
10,CC(C)c1nc2sc3c(=O)[nH]cnc3c2c2c1CCCC2,12.1
11,Cc1ccc2[nH]c(=O)c3cc(C(=O)NCCN4CCN(C)CC4)sc3c2c1,2.64
12,COc1ccc(/C(N)=C/C(=O)C(C)(C)C)cc1,-5.64
13,N#CCn1cnc2c(oc3ccccc32)c1=O,8.96
14,CCOC(=O)c1ccc(NC(=O)NCc2ccncc2)cc1,1.76
15,CCn1ccnc1CNCc1ccc(OCC(O)CN(C)Cc2ccccc2)cc1 (stereo not drawn),-11.7
16,COc1cc(OC)cc(C(=O)NC(=S)Nc2nnn(C)n2)c1,12.7
17,CN1CCN(C(=S)c2ccc(Br)cc2)CC1,-35.9
18,O=C(Nc1ccc(N2CCOCC2)cc1)c1cccc(-n2cnnc2)c1,17
19,Cc1ccc(OCCCCc2c(C)n[nH]c2C)cc1,-2.3
20,COc1ccc(C(=O)Nc2ccccc2C(=O)NC(Cc2ccc(O)cc2)C(=O)NNC(=O)c2ccccc2Cl)cc1 (stereo not drawn),21.2
21,COC(=O)c1sccc1NC(=S)N1CCN(c2cc(C)ccc2C)CC1,20.2
22,COc1cccc(CNCC(O)(c2ccc(Cl)cc2)c2ccc(Cl)cc2)c1,-12.2
23,O=C(Nc1nc2c(s1)CCCC2)c1cc(-c2ccc3c(c2)OCO3)nc2ccccc12,6.66
24,Cc1cccc(N2C(=O)N3[C@@H]4c5ccccc5OC[C@@H]4[C@@H](c4ccccc4)[C@@]3(C)C2=O)c1,12.8
